# According to PubChem BioAssay AID624417 (National Center for Advancing Translational Sciences (NCATS), 2012):
# Several values for one entry are separate records, joined by “and”; a condition that tells them apart may be missing. Identical values can stand only once. In all, about 410,000 compounds went through this assay and about 6,400 (1.6%) were called active. This list was built around the results that the source calls inconclusive (neither active nor inactive); the mix of calls is not that of the screen. Calls come from the whole dose curve; as a rule, active = well fitted inhibition curve with a large enough effect; inconclusive = small, poorly fitted or top-dose-only effect; inactive = no such curve, though single readings can be large or run the other way. A potency beside an inconclusive call is a rough fit, not a confirmed value.
# Biological target: Glucagon-like peptide 1 receptor (Homo sapiens) (UniProt P43220)
# Test: qHTS of GLP-1 Receptor Inverse Agonists (Inhibition Mode); note: nearly all actives have a fitted effect of over 55% in size
# Details: HEK293 GLP-1R CRE-luciferase, luminescence, 24 h, GLP-1R form is constitutively active; activity change, negative = inhibition: at 38.3 µM (top of the series) unless noted
# Method in brief: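 Inverse agonism was detected as reduced cAMP-driven luciferase luminescence after 24 h compound treatment. The cells were HEK293 clones expressing constitutively active human GLP-1R with the reporter. Reporter-only and GPR119 cell lines served as counterscreen controls.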
# % is set by controls: 0 for no effect and ±100 for the full control effect; potency is the fitted concentration of half-maximal effect; tags give direction and shape of the fitted curve.
# Sequence of UniProt P43220 (P43220 whole entry, looked up): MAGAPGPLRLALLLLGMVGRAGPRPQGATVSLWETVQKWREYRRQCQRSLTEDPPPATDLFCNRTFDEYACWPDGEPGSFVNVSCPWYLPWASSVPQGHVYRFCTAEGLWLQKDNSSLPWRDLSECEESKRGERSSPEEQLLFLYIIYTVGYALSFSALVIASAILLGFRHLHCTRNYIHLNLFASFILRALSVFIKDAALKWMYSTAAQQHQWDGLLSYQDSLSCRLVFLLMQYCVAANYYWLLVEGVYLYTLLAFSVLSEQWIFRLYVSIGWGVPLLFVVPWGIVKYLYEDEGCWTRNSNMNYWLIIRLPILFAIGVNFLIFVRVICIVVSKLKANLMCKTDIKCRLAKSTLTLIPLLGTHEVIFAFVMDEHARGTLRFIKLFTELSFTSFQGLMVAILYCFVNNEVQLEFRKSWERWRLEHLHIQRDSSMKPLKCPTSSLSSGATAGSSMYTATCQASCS
SMILES,Potency,"activity change, negative = inhibition"
COC(=O)c1[nH]c2ccc(C)cc2c1NS(=O)(=O)c1ccc(F)c(C)c1,active: 10 µM,–
Cc1ccc(C2NC(=O)c3ccccc3N2)c(C)c1 (centres undefined),"inconclusive: 6.31 µM [inhibitor, partial curve, poor fit]",–
Cc1sc(N)nc1-c1ccc(Oc2ccccc2)cc1,"inconclusive: 28.2 µM [inhibitor, single point]",–
Cc1cccc(-c2cc(NC(=O)c3ccccc3C)n(-c3ccccc3)n2)c1,"inconclusive: 20 µM [inhibitor, single point]",–
COCCNC(=O)CCC1CCN(Cc2cccc(Oc3ccccc3)c2)CC1,"inconclusive: 10 µM [inhibitor, partial curve, poor fit]",–
OC(c1ccccc1)c1nc(-c2ccc(F)c(Cl)c2)cs1 (centres undefined),"inconclusive: 14.1 µM [inhibitor, single point]",–
CC(C)CCn1c(=O)c2ccccc2n2c(CN(C)Cc3ccccc3)nnc12,"inconclusive: 7.94 µM [inhibitor, partial curve, poor fit]",–
O=C1c2ccccc2C(Nc2ccccc2)N1Cc1ccc2c(c1)OCO2 (centres undefined),"inconclusive: 28.2 µM [inhibitor, single point]",–
O=[N+]([O-])c1ccc(N/N=C/c2sc(N3CCOCC3)nc2-c2ccccc2)c(S(=O)(=O)Nc2ccccc2Cl)c1,"inconclusive: 2.24 µM [inhibitor, full curve, poor fit]",–
CC(OC(=O)C1CCN(S(=O)(=O)c2ccc(Cl)cc2)CC1)C(=O)N1CCc2ccccc21 (centres undefined),"inconclusive: 0.891 µM [inhibitor, full curve, poor fit]",–
CN1CCN(c2nc(-c3cccs3)nc3ccccc23)CC1,"inconclusive: 28.2 µM [inhibitor, single point]",–
CCC(C)NCCOCCOc1ccc(Cl)c2ccccc12 (centres undefined),active: 1.58 µM,–
COc1cc(/C=C2/C(=O)NN(c3cccc(Cl)c3)C2=O)cc(OC)c1O,active: 2.82 µM,–
CCOC(=O)CN(C(=O)CSc1nnc(-c2cccc(OC)c2)o1)c1ccc(F)cc1,–,inactive: -29.6%
C=CCN(c1ccccc1)S(=O)(=O)c1cccc(C(=O)N(CC)CC(=O)Nc2c(F)cccc2F)c1,"inconclusive: 10 µM [inhibitor, partial curve, poor fit]",–
CCN(Cc1ccccc1)C(c1ccc(C)cc1)c1nnnn1C(C)(C)CC (centres undefined),"inconclusive: 7.94 µM [inhibitor, partial curve, poor fit]",–
OC(COC(c1ccc(F)cc1)c1ccc(F)cc1)CN1CCc2ccccc2C1 (centres undefined),"inconclusive: 28.2 µM [inhibitor, single point]",–
CCSc1nc(-c2cccc(Cl)c2)nc2c1Cc1c(CO)cnc(C)c1O2,–,inactive: 5.94%
CC(C)(C)c1cc(CSC(=S)NC2CCS(=O)(=O)C2)c(Br)c(C(C)(C)C)c1 (centres undefined),"inconclusive: 10 µM [inhibitor, single point]",–
O=C(CNS(=O)(=O)c1ccc(Br)cc1)NC1CCCC1,–,inactive: 8.07%
O=C(Nc1nc(-c2ccc(Oc3ccccc3)cc2)cs1)C1=COCCO1,"inconclusive: 22.4 µM [inhibitor, single point]",–
COc1ccc(C(=O)C2CCCN(Cc3cccn3-c3nccs3)C2)cc1F (centres undefined),"inconclusive: 12.6 µM [inhibitor, single point]",–

SMILES,Potency,"activity change, negative = inhibition"
COc1ccc(NC(=S)NCc2ccccc2Cl)c(OC)c1,"inconclusive: 14.1 µM [inhibitor, partial curve, poor fit]",–
O=C(Nc1ccccc1N1CCCCC1)C1=COCCO1,"inconclusive: 28.2 µM [inhibitor, single point]",–
CCCCN1C(=O)C(O)(CC(=O)c2ccc(CC)cc2)c2cc(Br)ccc21 (centres undefined),"inconclusive: 28.2 µM [inhibitor, single point]",–
O=C(Nc1ccc(NC(=O)C23CC4CC(CC(C4)C2)C3)cn1)c1ccco1,"inconclusive: 2.51 µM [inhibitor, full curve]",–
COC(=O)C1C/C(=N\NS(=O)(=O)c2ccc(C)cc2)c2ccccc2C1 (centres undefined),"inconclusive: 31.6 µM [inhibitor, single point]",–
Cc1ccc2c(c1)C(c1ccccc1)N(C(=O)COc1ccc(Cl)cc1Cl)CC(=O)N2 (centres undefined),"inconclusive: 20 µM [inhibitor, single point]",–
CCC1=NN(C(=O)c2ccc(C)cc2)C(O)(c2ccc(Br)cc2)C1 (centres undefined),"inconclusive: 3.16 µM [inhibitor, full curve, poor fit]",–
C=CCn1c(-c2ccc(C)cc2)nc2ccccc21,"inconclusive: 28.2 µM [inhibitor, single point]",–
CC1(C(=O)Nc2ccc3c(c2)OCCO3)CCN1C(=O)C1(c2ccc(Cl)cc2)CC1 (centres undefined),"inconclusive: 11.2 µM [inhibitor, partial curve, poor fit]",–
CSc1ccc(CNC(=O)C2Cc3cc(S(=O)(=O)N4CCCCC4)ccc3N2C(C)=O)cc1 (centres undefined),"inconclusive: 28.2 µM [inhibitor, single point]",–
COc1ccc(-c2nc3ccccc3n2Cc2ccccc2)cc1,"inconclusive: 14.1 µM [inhibitor, partial curve, poor fit] and inconclusive: 10 µM [inhibitor, single point]",–
CCCCCOc1ccc(NC(=O)Cn2c(-c3nonc3N)nc3ccccc32)cc1,–,inactive: 1.68%
CCN(CC)CCCNC(=O)c1csc(Nc2cccc3ccccc23)n1,"inconclusive: 10 µM [inhibitor, single point]",–
COc1cccc(C(=O)Nc2nc(-c3nnn(-c4ccccc4C(F)(F)F)c3C)ns2)c1,active: 5.62 µM,–
COc1ccc(NC(=O)NNC(=O)CCc2ccc(O)c(O)c2)cc1OC,–,inactive: 9.28%
Cc1cc(NC(=O)c2ccc3c(c2)OCCO3)no1,"inconclusive: 7.94 µM [inhibitor, partial curve, poor fit]",–
O=C(Nc1ccccc1)NC1CCCc2ccccc21 (centres undefined),"inconclusive: 28.2 µM [inhibitor, single point]",–
CCN(CC)S(=O)(=O)c1ccc2c(c1)N(CC(=O)Nc1ccc(Cl)cc1)C(=O)C1CCCN21 (centres undefined),–,inactive: -9.22%
O=C(O)c1ccc(/C=C2\SC(=S)N(Nc3ccccc3)C2=O)cc1,"inconclusive: 12.6 µM [inhibitor, partial curve, poor fit]",–
CC(C)c1ccc(/C=N/Nc2cc(N3CCOCC3)nc(N3CCOCC3)n2)cc1,"inconclusive: 22.4 µM [inhibitor, single point]",–
O=C(CN(Cc1ccc(Br)cc1)S(=O)(=O)c1ccccc1)NCc1cccnc1,"inconclusive: 11.2 µM [inhibitor, partial curve, poor fit]",–
CC(C)(C)c1ccc(C(=O)NCC(c2ccco2)S(=O)(=O)c2ccccc2)cc1 (centres undefined),"inconclusive: 11.2 µM [inhibitor, partial curve]",–

SMILES,Potency,"activity change, negative = inhibition"
CCc1ccc(N2C=C(C(=O)OC)C(c3ccc(OC)cc3)C(C#N)=C2N)cc1 (centres undefined),"inconclusive: 22.4 µM [inhibitor, single point]",–
COc1ccccc1CCN1CCCC(CN(C)CC(C)(C)CO)C1 (centres undefined),"inconclusive: 7.94 µM [inhibitor, partial curve, poor fit]",–
CCN(CC(=O)NCc1ccc(F)cc1)C(=O)c1cccc(S(=O)(=O)N(C)c2ccc(OC)cc2)c1,"inconclusive: 25.1 µM [inhibitor, partial curve, poor fit]",–
CCOc1ccc(Oc2ccc(Cl)cc2NC(=O)C2=COCCO2)cc1,active: 10 µM,–
CCOC(=O)C1(Cc2ccccc2)CCCN(C2CCN(C(C)=O)CC2)C1 (centres undefined),–,inactive: 6.2%
Cc1ccc(NCc2nnc(SCCN3CCCCC3)n2CC2CCCO2)c(C)c1 (centres undefined),"inconclusive: 28.2 µM [inhibitor, single point]",–
CCN(CC)S(=O)(=O)c1ccc(N(C)C)c(NC(=O)C2CCCC2)c1,"inconclusive: 6.31 µM [inhibitor, partial curve, poor fit]",–
O=C(Nc1ccc(-c2nc3c(ccc4ccccc43)o2)cc1)c1ccco1,–,inactive: -3.92%
O=C(N/N=C/c1ccccn1)c1cc(-c2ccc(Cl)cc2)nc2ccccc12,"inconclusive: 2.82 µM [inhibitor, full curve, poor fit]",–
CCC(C(=O)Nc1ccccc1N1CCCC1)c1ccccc1 (centres undefined),"inconclusive: 7.08 µM [inhibitor, partial curve, poor fit]",–
Cc1cccc(C)c1OCCn1c(CCNC(=O)C2CCCCC2)nc2ccccc21,"inconclusive: 10 µM [inhibitor, partial curve, poor fit]",–
COc1ccc(C2Nc3ccccc3-c3cc(C)nn32)c(OC)c1 (centres undefined),–,inactive: -18.9%
Cn1c(=S)oc2ccccc21,–,inactive: -11.9%
Cc1ccc(NC(=O)c2ccc(Cn3cc(Br)cn3)o2)cc1,"inconclusive: 3.55 µM [inhibitor, partial curve, poor fit]",–
COc1ccc(C)c2sc(NC(=O)c3ccc(S(=O)(=O)N4CCOCC4)cc3)nc12,–,inactive: 5.53%
CC1([N+](=O)[O-])COC(c2cccc3ccccc23)OC1 (centres undefined),"inconclusive: 28.2 µM [inhibitor, single point]",–
COc1ccc(CNCCc2ccc([N+](=O)[O-])cc2)c(OC)c1OC,"inconclusive: 11.2 µM [inhibitor, single point]",–
COc1ccc(-c2sc3ccc(OC)cc3c2C#CCCO)cc1,–,inactive: -14.9%
COc1cccc(N2CCN(C(=O)c3cnc4c(-c5ccc(F)cc5)c(C)nn4c3C)CC2)c1,"inconclusive: 7.94 µM [inhibitor, partial curve, poor fit]",–
N=c1ccn(Cc2ccccc2Cl)cc1,"inconclusive: 7.94 µM [inhibitor, partial curve, poor fit]",–
